One may read the TGI as the concentration at which net growth stops. High values mean less potent growth arrest, low ones more potent growth arrest. The GI50 is the concentration giving 50% growth inhibition.

The structures appear in SMILES notation. Several values for one entry are separate records, joined by “and”; a condition that tells them apart may be missing. Equal values may be shown once.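 Cultured in 96-well plates, cells were exposed to test compound for 48 hours across five concentrations. GI50 = concentration required for 50% inhibition of growth. TGI denotes the concentration required for complete inhibition of growth.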

The assay relates to NCI-H322M lung. The experiment in a line: DTP human tumour cell line panel, 48 h.
Turning to `OCC(O)C(O)C(O)C(O)/C=N/Nc1nc(O)c(/C=C2\C=Nc3ccccc32)[nH]1` (stereo unspecified), the TGI was over 100 µM.
As for `Cc1cc(O)c(C(C)C)cc1N=Cc1ccccc1O`, the TGI is 28.3 µM.
As for `O=C1N[C@@H](COc2ccc(C=Nc3ccc(CCc4ccc(N=Cc5ccc(OC[C@@H]6COC(=O)N6)cc5)cc4)cc3)cc2)CO1`, the TGI was over 100 µM.
Turning to `NCCCC[C@H](N)C(=O)Nc1ccc(-c2nc3ccccc3s2)cc1Cl`, the TGI was 24.9 µM. That is a double-digit micromolar value.
Consider `CC(=O)N1CCN(CCOc2ccc(C3CCN(C4=Nn5c(nnc5C(F)(F)F)CC4)CC3)cc2)CC1`, for which the GI50 is 35.6 µM and the TGI was over 100 µM.
`C[N+](C)([O-])CCCNc1ccnc2cccc([N+](=O)[O-])c12` returned a TGI of over 100 µM.
Same read-out and setting: under `COc1cccc(-c2cc(=O)c3cc(Cl)cnc3[nH]2)c1` stands over 100 µM.
Turning to `Nc1c(C(=O)Nc2cccc(Br)c2)sc2nc3c(cc12)C(O)CCC3` (stereo unspecified), the GI50 is 0.597 µM and the TGI was over 100 µM.
The corresponding values for `O=C(NCCCCOCC#Cc1ccccc1C#CCS(=O)(=O)c1ccccc1)c1cc2ccccc2[nH]1` are 18 µM and over 50 µM.
`COC(=O)[C@H](CCSC)NC(=O)c1ccc(CNC(=O)/C(C)=C/c2ccccc2)cc1`: the TGI came to 63.3 µM.
As for `O=C1NC2(C=Cc3c(ccc4ccccc34)O2)Oc2ccccc21` (stereo unspecified), the TGI was over 100 µM.
In turn, `CN(C)CCn1nc(N)c2nc3cc(C(F)(F)F)ccc3nc21` had a TGI of over 100 µM.
Consider `C/C=C1\CC(C(=O)OCC)CCCCCCCCCCC1=O` (stereo unspecified), for which the TGI was over 100 µM.
The same measure, in the same setting: under `CN1B(c2ccccc2)N(C)C(=O)N(C)C1=O` stands over 100 µM; under `COc1cc(/C=N\O)nc(-c2ccccn2)c1`, over 100 µM; under `Nc1ccc(-c2nc3ccccc3s2)cc1Br`, over 100 µM.
With `CC(/C=N/NC1=NCCCN1)=N\NC1=NCCCN1`, the TGI is over 100 µM.
Regarding `N#Cc1cccc(OCc2ccccc2COc2cccc(C#N)c2)c1`, the GI50 was 13.3 µM and the total growth inhibition concentration (TGI) is 38.8 µM.
As for `CC(C)(C)C(=O)OCc1nc2cc3c(cc2c(=O)[nH]1)CCC3=O`, the GI50 was over 100 µM and the TGI was over 100 µM.
In the case of `C1CC[N-]CC1.CC(=N\O)/C(C)=N/O.CC(=N\O)/C(C)=N/O.[CH2-]CCN1CCOCC1.[Co+2]`, the GI50 is over 100 µM and the TGI is over 100 µM.
Take `CC(=O)N(CN1C(=O)CCC1C(=O)O)c1ccccc1Cl` (stereo unspecified): the TGI is over 100 µM.
In turn, `COc1cc([C@@H]2c3cc4c(cc3C[C@H]3COC(=O)[C@@H]32)OCO4)cc2c1OCO2` showed a TGI of over 100 µM.
For `Cc1sc2ncn(Cc3ccc(Cl)c(Cl)c3)c(=O)c2c1C`, the GI50 was 7.88 µM and the TGI came to 46.5 µM.
For `C=CCC(SC)C1=C(C)C(=O)c2ccccc21` (stereo unspecified), the TGI was over 10 µM.
`CCN(CC)CCNc1ccc2ncn3c4cc(=O)ccc4c(O)c1c23` displayed a TGI of 14.8 µM.
Take `Cc1nc2c(=O)[nH]c3ccc(Cl)cc3c2o1`: the TGI was over 100 µM.
As for `Cc1ccc2c(c1)C(=O)c1c-2n(CCCN=[N+]=[N-])c(=O)c2cc([N+](=O)[O-])ccc12`, the GI50 is 61.2 µM and the TGI was over 100 µM.
With `CCOC(=O)CC[C@H](N)C(=O)N[C@H](Cc1ccc(N(CCCl)CCCl)cc1)C(=O)OCC`, the concentration for total growth inhibition (TGI) was over 56.9 µM.
In turn, `CCCC1(N)CC(OC)OC(C)C1O` (stereo unspecified) yielded a TGI of over 100 µM.
For the molecule `CCCCCCCCCCSCC(CO)NC(=O)/C=C/c1c(C)[nH]c(=O)[nH]c1=O` (stereo unspecified), the concentration for total growth inhibition (TGI) is over 30.2 µM.
Turning to `O=C(O)C(=O)CBr`, the GI50 is over 100 µM and the TGI is over 100 µM.
In the case of `O=c1c2c3c(sc2n2c(-c4ccc(Br)cc4)nnc2n1Cc1ccccc1)CCCC3`, the GI50 was 2.65 µM and the TGI came out at 18.2 µM.
For `CC(=O)C1(O)Cc2c(O)c3c(c(O)c2C(OC2CC(N)C(O)C(C)O2)C1)C(=O)c1ccccc1C3=O` (stereo unspecified), the GI50 is 0.163 µM and 0.0786 µM; the TGI was 0.696 µM and 0.66 µM.
`CC(=O)O[C@H]1C=CC23OC(=O)[C@]1(C)[C@H]2[C@H](C(=O)O)C12CC(=O)[C@@](CO)(CC[C@H]13)C2`: the TGI is over 100 µM.
In the case of `Cc1cc(O)cc2c1c(=O)c1ccccc1n2C`, the TGI was over 100 µM.
For `C#Cc1cc2c(N)c(C(=O)c3cc(OC)c(OC)c(OC)c3)[nH]c2cc1OC`, the GI50 is 23.9 µM and the TGI was over 100 µM.
With `CCOC(=O)Cc1csc(NC(=O)COC(=O)c2ccc(OC)cc2)n1`, the GI50 is over 100 µM and the TGI was over 100 µM.
`CC1(C)c2ccccc2C(O)C12CCC(=O)CC2` (stereo unspecified) gave a TGI of over 100 µM.
Turning to `CCCCCc1c(C)[nH]c(/C=C2\N=C(c3ccc[nH]3)C=C2OCc2ccccc2)c1C`, the GI50 is 0.0817 µM and 0.0533 µM; the TGI was 3.96 µM and 2.22 µM.
Regarding `CSC1=C(C(=O)Nc2ccccc2)C(N)=NC1=O`, the TGI is over 100 µM.
Turning to `CCCCCCNC(=O)Oc1ccc(/C(=C(\C)c2ccccc2)c2ccc(OCCN(CC)CC)cc2)cc1`, the GI50 is 7.61 µM and the TGI turned out to be 14.3 µM.
On to `CC(C)N(C(C)C)P(OCCC#N)OC1CC(n2cnc3c(=O)[nH]cnc32)OC1COC(=O)NCCCCCCNC(=O)OC(C)(C)c1ccc(-c2ccccc2)cc1` (stereo unspecified), for which the TGI was over 100 µM.
On to `Cn1ccnc1C[N-]Cc1nccn1C.O=[N+]([O-])[O-].O=[N+]([O-])[O-].[Cu+2]`, for which the GI50 was over 100 µM and the TGI was over 100 µM.
Regarding `OC1c2ccccc2C(O)C2OC12` (stereo unspecified), the TGI is over 100 µM.
Consider `O=C(Nc1cccc(C(F)(F)F)c1)c1cc(Br)cc(Br)c1O`, for which the TGI is over 10 µM.
Consider `CO[C@H](C(=O)O)[C@@H]1Cc2cc3cc(OC4CC(OC5CC(O)C(O)C(C)O5)C(O)C(C)O4)c(C)c(O)c3c(O)c2C(=O)[C@H]1OC1CC(OC2CC(OC3CC(C)(O)C(O)C(C)O3)C(O)C(C)O2)C(O)C(C)O1` (stereo partly specified), for which the GI50 is 0.465 µM and the TGI turned out to be 15.8 µM.
`O=C(Oc1cccc(Cl)c1)c1cc2cc(CCl)ccc2oc1=O` showed a TGI of 43.4 µM.
Turning to `COc1ccc(-c2c(N)n[nH]c2-c2cc(OC)c(OC)c(OC)c2)cc1`, the TGI is over 100 µM.
For the molecule `Brc1cccc[n+]1-c1ccc2cc(-[n+]3ccccc3Br)ccc2c1`, the TGI was over 100 µM.
Molecule `Cc1ccc(NC(=O)CCC(=O)C(C#N)c2ccccc2)cc1C` (stereo unspecified) registered a TGI of over 100 µM.
Take `O=[N+]([O-])c1cc(F)c2cccnc2c1O`: the GI50 is 4.25 µM and the TGI came to 46.5 µM.
`Cc1ncc([N+](=O)[O-])n1CCNC(=O)CCCCCn1ccnc1[N+](=O)[O-]` yielded a TGI of over 100 µM.
Still for that read-out and setting: under `COc1ccc2c(c1)OCCC1=C2SCC2(C)CCN=C12` (stereo unspecified) stands over 100 µM; under `N=C(N)SCCc1ccccn1`, over 100 µM.
Regarding `O=[As]c1ccc(C(=O)c2ccc(Oc3ccccc3)cc2)cc1` (stereo unspecified), the GI50 was 0.125 µM and the TGI came to 0.301 µM.
On to `CC(=O)CC(=O)/C=C/c1cccs1`, for which the TGI is over 100 µM.
Turning to `O=C(Nc1cc(-c2cccnc2)nc(NCCCN2CCOCC2)n1)c1cc(Br)cc(C(F)(F)F)c1`, the GI50 is 3.72 µM and the TGI stood at 15 µM.
For `C=CC(Br)(CBr)CCC(Br)C(C)C` (stereo unspecified), the TGI stood at 29.1 µM. This counts as double-digit micromolar.
The same measure, in the same setting: then `c1ccc(C2[C@@H]3CCCc4ccccc4C3=NN2c2ccccc2)cc1` (stereo partly specified), with over 100 µM; and `C=CC1(c2ccc(OC)cc2)OCCCO1`, with over 100 µM; and `COc1ccc2c(c1)-c1[nH]c3ccccc3c1CC2`, with 34.3 µM.
Take `CC(C)c1cccc(C(C)C)c1OS(=O)(=O)NC(=O)OC(C(F)(F)F)C(F)(F)F`: the TGI was over 100 µM.
Turning to `c1ccc(CCn2cncn2)cc1`, the TGI is over 100 µM.
Consider `COc1ccc(C[C@@H]2OC3(C=CC(=O)C=C3)O[C@H]2Cc2ccc(OC)cc2)cc1`, for which the TGI is 28.7 µM.
Molecule `NS(=O)(=O)c1ccc(NC(=O)Nc2ccccc2F)cc1` came in with a TGI of over 100 µM.
Regarding `Nc1nc(N)c(-c2ccccc2)c(CCC(=O)Nc2ccc(Cl)cc2)n1`, the TGI is over 100 µM.
For the molecule `CC1(C)[C@@H](OC(N)=O)C=C[C@]2(C=O)[C@H]3CC[C@]4(C)[C@@H](c5ccc(=O)oc5)[C@@H](Cl)C[C@]4(O)C3=CC[C@@H]12`, the concentration for 50% growth inhibition (GI50) is 0.0058 µM and the TGI amounted to 0.0167 µM.
As to `CCC1(O)CC(OC2CC(N(C)C)C(OC3CC(O)C(OC4CCC(=O)C(C)O4)C(C)O3)C(C)O2)c2c(O)c3c(c(O)c2C1C(=O)OC)C(=O)c1cccc(O)c1C3=O` (stereo unspecified), the TGI is 1.73 µM.
Consider `Cc1ccc2c(=O)c(-c3n[nH]c(=S)s3)c[nH]c2n1`, for which the TGI is over 100 µM.
`OC(CN1CCCCC1)c1ccc(/C=C/c2ccc(Cl)cc2)cc1` (stereo unspecified): the TGI was over 100 µM.
Still for that read-out and setting: under `CN(CCO)/N=N/c1[nH]ncc1C(N)=O` stands over 100 µM; under `CC1=C(C(=O)Nc2ccccc2)C(c2ccc(C(C)C)cc2)C(C(=O)Nc2ccccc2)=C(C)N1`, over 100 µM; under `Cc1cc(O)c(C(c2ccncc2)c2c(O)cc(C)[nH]c2=O)c(=O)[nH]1`, over 100 µM.
In the case of `CCOC(=O)/N=c1/nc(N(C)C)ss1`, the TGI is over 100 µM.
`CC[C@H](C)C1=C(OC(C)=O)[N@+]2([O-])Oc3ccc(-c4c(OC(C)=O)c(OC(C)=O)c(-c5ccc(OC(C)=O)cc5)c(OC(C)=O)c4OC(C)=O)cc3O[C@]2([C@@H](C)CC)C(=O)N1OC(C)=O`: the total growth inhibition concentration (TGI) is over 50 µM.
For `O=[N+]([O-])c1ccc2ncccc2c1CCc1c([N+](=O)[O-])ccc2ncccc12`, the TGI is over 100 µM.
`COc1cc(C2c3cc4c(cc3[C@@H](Nc3ccc(N)cc3)C3COC(=O)[C@H]23)OCO4)cc(OC)c1O` (stereo partly specified) had a TGI of 53 µM.
As for `Oc1ccc(Cl)cc1-c1cc(-c2ccc(F)cc2)n[nH]1`, the GI50 is 2.39 µM and the TGI was found to be 7.28 µM.
Take `NCP(=O)(O)OCC(=O)O`: the TGI is over 100 µM.
With `c1ccc2nc(OCCN3CC3)ccc2c1`, the GI50 is 13.4 µM and the TGI is 33.1 µM.
Molecule `CC1(C)C2CCC(N)(C2)C1O` (stereo unspecified) registered a TGI of over 100 µM.
With `Cc1ccc(S(=O)OC23CC4CC(CC(C4)C2)C3)cc1` (stereo unspecified), the TGI was over 100 µM.
For `CCOC(=S)SCN1C(=O)c2ccccc2S1(=O)=O`, the GI50 was 25.4 µM and the TGI was 59.3 µM.
On to `O=C1c2ccn(CCCCN3CCC(O)CC3)c2C(=O)c2c1c(O)c1ccccc1c2O`, for which the GI50 is 4.94 µM and the TGI was 12.5 µM.
In turn, `C=CCC(CNC(=O)OCc1ccccc1)OC(=O)OCc1ccccc1` (stereo unspecified) gave a TGI of over 100 µM.
Still for that read-out and setting: then `COP(C)(=O)C(Cc1c[nH]c2ccccc12)NC(=O)OCc1ccccc1` (stereo unspecified), with over 100 µM.
